# Laboratory results taken from paper PMC12136788.
# Some of the results follow.
# B1: chr2:48026839:48026840:+_ENSG00000116062_ENST00000540021|hu_hu|hu_hu_hu_mus_False|28_78 (ssRNA)
# RNA: GGGAGUUCUACAGUCCGACGAUCAUAGUGAGCCACUAGCGUCCUAAAUCUGGAACAAUGGCGAUCAUCCGAAAACUGGCCGAUGAAAAACUUGCCCAGUGAAGUGUCAACAAAGCAAACACCAUACACACGAGUGUGACCAGACAACAGAGGAUUGAGCAUCA
# B2: 91957201_91972444_1210_CDS_ENSG00000001629_ENST00000265742|human|control|control (ssRNA)
# RNA: GGGAGUUCUACAGUCCGACGAUCGGCAUUAUACCCACUUGGUGGUGGAGUUGGCAUUUGAACACCUGAUCGUUGGCAGCAGUUCUCCGGGUUGGACAUCCAAGCUUCAAGUAAUUUCUCCCUGUCCCAGUCAUGAGCUCGAAGCAACAGAGGAUUGAGCAUCA
# B3: 45479340_45479460_530_CDS_ENSG00000126088_ENST00000246337|human|control|control (ssRNA)
# RNA: GGGAGUUCUACAGUCCGACGAUCGGCACCAGCAAAGCCAAUCAGCGGCACACGUCCAGCCAGUCGUUGUCGGGUAAGGGUGAUGGCUUGGAACACAUAGCCUAGCUCAGAGGCUACCACUUCUGGAUCCCGUAGGCGUUCUAGCAACAGAGGAUUGAGCAUCA
# B4: chr16:16330038:16330039:-_ENSMUSG00000022789_ENSMUST00000023477|mus_mus|motif|central (ssRNA)
# RNA: GGGAGUUCUACAGUCCGACGAUCACUUUUAUCAUCCACCGGUUCACCAUAGCUAUUUAGAAGAGACUGAUACUGAGCAGCGGAGACAUUUAUUCUUGUUUUCAGCUCUGGUAAACAAUCUCUGAUAUGAUGCAUAAGUAACCUCAACAGAGGAUUGAGCAUCA
# B5: 111717365_111717485_9314_ncRNA_ENSMUSG00000033209_ENSMUST00000156290|mouse|control|control (ssRNA)
# RNA: GGGAGUUCUACAGUCCGACGAUCCACAUCUGAGACAAAUAGAAAGCAGCCCAGGUACCAAUUUGCUCUUCAGUGUCAGUCAGAGGAAAAACAGCGUACCUAGGCAGCCUGGGAGUCCUCCUCCAUGGCUUGGCAACCACACAUCAACAGAGGAUUGAGCAUCA
# B6: chr2:160605324:160605325:+_ENSG00000136536_ENST00000409591|hu_hu|FALSE|FALSE (ssRNA)
# RNA: GGGAGUUCUACAGUCCGACGAUCUCUUGAAGGCGCACUUUUAGUUUUAUCACUUUUACCAUCAGCUGAAUUCCAACCUGAAGGAAUAAUAUCUACUGUGAUCAUGACAUUGUCGGUCAAAUUACUCCCAAGUGCUGGAGGGACCAACAGAGGAUUGAGCAUCA
# B7: 32339383_32339624_2503_CDS_ENSMUSG00000024002_ENSMUST00000121285|mouse|control|control (ssRNA)
# RNA: GGGAGUUCUACAGUCCGACGAUCCUGCUGCUGCGGAGGUGGGGGUGGAGGAGGCUGCUGUGGAGGUGGGGGCGGCUGCUGGGGCACAGGAGCUGGGGCUGGCUGCAUCUGUGGAUGGUGAUGGUGAUGAUGCUUUUUCUGGUCCAACAGAGGAUUGAGCAUCA
# B8: 95464784_95464904_1230_3pUTR_ENSMUSG00000038612_ENSMUST00000037947|mouse|control|control (ssRNA)
# RNA: GGGAGUUCUACAGUCCGACGAUCAUCCUGUAGCCACUUUCUUUUUGCUAUGUUGCUACAGUAGAACUGGACUGUUAAAAUCCUGGGCAGCUUCAAGUCCACCUUCAUAAAUACACAUGUUUUCACAGAUGCAUGUAGUUUGGUCAACAGAGGAUUGAGCAUCA
# B9: chr2:5814250:5814251:-_ENSMUSG00000025816_ENSMUST00000102981|mus_hu|mus_mus_mus_hu_True|1_1 (ssRNA)
# RNA: GGGAGUUCUACAGUCCGACGAUCUUCCUUUCCGGUUUCUGAAUUUCUGGUAGAACUGCACAGAAUGGUUUGAUAACUUCUAAAAAUUUGAUGCCCAUGGCUGCUGCUGGGGAGGCCCAGGGGGAAACCGCGGCCUCGCAGCUGCAACAGAGGAUUGAGCAUCA
# B10: chr8:42798479:42798480:+_ENSG00000168172_ENST00000307602|hu_mus|FALSE|FALSE (ssRNA)
# RNA: GGGAGUUCUACAGUCCGACGAUCCGAAUGCUCCCCAAUGAGGUUCACGUCAGGAAGGGUGAAAUCAUUAAUCUGCUGUCCUAAAAUCUCAUGAUUGUAAUCCAAGAUGCCUUUUAAAAUUUUCUUUAAAUUGCUGAUCUUUAACAACAGAGGAUUGAGCAUCA
# B11: 41321216_41322438_582_CDS_ENSMUSG00000025016_ENSMUST00000025989|mouse|control|control (ssRNA)
# RNA: GGGAGUUCUACAGUCCGACGAUCAUUAAAGCCUAUUUCAAGUUUUUUGUAGGUCCAAAGAUAGUAAUCUUCCCCAUUUUCAUCUGCUUCACCAACAAUACCCCAUAUUGGUAAGUCAUCUAUGUACAUCUGAUACCAAUAGUGCAACAGAGGAUUGAGCAUCA
# B12: 99534180_99535334_2638_CDS_ENSG00000088387_ENST00000339416|human|control|control (ssRNA)
# RNA: GGGAGUUCUACAGUCCGACGAUCUCUGGUGAGGACUCGGAACAGCUGGUUUAGGAUAGUGGGCAAGAAGGCGAUCAUCACGUGGCCUUCCAUCGCAUGCAGACUCUUAAGGUACUUUACAAGUUCGUUUCCUAAGGCUUGGGCCAACAGAGGAUUGAGCAUCA
# B13: chr17:62499630:62499631:-_ENSG00000108654_ENST00000581693|hu_mus|FALSE|FALSE (ssRNA)
# RNA: GGGAGUUCUACAGUCCGACGAUCAGCACCACCAUAGAUGCAAGUAGACUUCAAGCGACAAGCUCGACAAUAUUCAGCAGCCACUUGCUGCACCUGCUGUGCCAGUUCUCGAGUUGGUGCCAGCACCAAGCAAAUAGGCCCAUCCAACAGAGGAUUGAGCAUCA
# B14: chr2:47387770:47387771:-_ENSG00000143933_ENST00000272298|hu_hu|FALSE|FALSE (ssRNA)
# RNA: GGGAGUUCUACAGUCCGACGAUCAAGGUUUUAGGACAAUGACAGUAAGAUAAGGGAAGAAAACAUGGAGGAAUGAAGUCCUAAUUACUAUACAUGCAUAUUUUUUUGACAGUAGGGAGAAACCUUUUACAGAUAAGUUACAAACAACAGAGGAUUGAGCAUCA
# Biological target: T1, UNK ZnF1-3 (human, UniProt Q9C0B0 31-174)
# T1 sequence: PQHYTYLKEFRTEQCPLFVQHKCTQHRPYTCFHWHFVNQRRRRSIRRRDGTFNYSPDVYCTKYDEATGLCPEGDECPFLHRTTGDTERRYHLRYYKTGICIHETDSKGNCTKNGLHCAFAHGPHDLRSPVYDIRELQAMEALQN
# Assay: nsRBNS (natural sequence RNA bind-n-seq); RBNS binding buffer (assumed for nsRBNS): 25 mM Tris pH 7.5, 150 mM KCl, 3 mM MgCl2, 0.01% Triton X-100, 500 ug/ml BSA, 20 U/ml SUPERase-In, 4 C; UNK is unkempt and MSI1 is Musashi-1; names of the RNAs are library labels; protein concentration not given here; high values mean tight binding
row,Binder,binding signal
1,B1,1.35 enrichment R
2,B2,2.17 enrichment R
3,B3,1.61 enrichment R
4,B4,0.972 enrichment R
5,B5,0.452 enrichment R
6,B6,1.01 enrichment R
7,B7,1.16 enrichment R
8,B8,0.398 enrichment R
9,B9,1.07 enrichment R
10,B10,1.36 enrichment R
11,B11,0.588 enrichment R
12,B12,1.02 enrichment R
13,B13,1.67 enrichment R
14,B14,1.8 enrichment R
